Measured values reported in PubChem BioAssay (NCATS).
Values joined by “and” are separate entries in the source; they are usually repeats but may differ in a detail not shown here. Equal values may be shown once. Inconclusive means that the source gave no clear call. Such entries were picked first, then a sample of the others. Potencies beside an inconclusive call are fits to weak or partial responses and may not hold up. For part of these data: A note “side channel” means that the fit belongs to a control or component signal, not to the main read-out. Where a structure was tested more than once in an assay, its records may differ in their call. Active and inactive are the calls of the source. Unless noted, calls follow the shape of the dose curve; as a rule, active = well fitted curve in the direction sought with a large enough effect; inconclusive = small, poorly fitted or top-dose-only effect, or another doubt; inactive = no such curve, though single readings can be large; an effect the other way counts as inactive or inconclusive.
Potency is read from the fitted curve at half-maximal effect; tags tell the direction and shape of the fitted curve or compound fluorescence and quenching.

Target: Peptidyl-prolyl cis-trans isomerase NIMA-interacting 1 (Homo sapiens) (UniProt Q13526)
UniProt Q13526, sequence (Q13526 whole entry, looked up): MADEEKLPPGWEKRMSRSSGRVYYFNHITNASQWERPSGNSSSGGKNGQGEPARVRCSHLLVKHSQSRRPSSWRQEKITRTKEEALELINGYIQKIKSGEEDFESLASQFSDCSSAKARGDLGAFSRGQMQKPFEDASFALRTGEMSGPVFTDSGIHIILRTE
Experiment: qHTS Validation Assay to Find Inhibitors of Pin1 (AID 504536; active = well fitted inhibition curve with a large enough effect in the polarisation, with a control signal flat, not every such curve was filed as active; inconclusive = small, poorly fitted or top-dose-only effect, or effect the other way; the % refers to the polarisation)
Details: Pin1 fluorescence polarization peptide binding assay; series mostly up to 57.5 µM
In short: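 Fluorescence polarization competition: compounds (titration) displace HiFluor-488-labeled Pin1-1b peptide from Pin1 (0.3 uM final) in pH 7.5 HEPES buffer with DTT, 10 min at room temperature; %Activity normalized to no-enzyme wells, curves fitted.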
In the case of `CC[C@@H](CO)NC(=O)[C@@H]1C=C2c3cccc4c3c(cn4C)C[C@H]2N(C)C1`, the Potency was inconclusive: 8.49 µM [fluorescent, side channel, partial curve]. With `O=c1c(O)c(-c2ccc(O)c(O)c2)oc2cc(O)cc(O)c12` the Potency was inconclusive: 2.69 µM [quencher, side channel, full curve]. For `C/C=C(/C)C(=O)O[C@H]1C(C)=C2[C@H]([C@@H]1OC(=O)CCCCCCC)[C@@](C)(OC(C)=O)C[C@H](OC(=O)CCC)[C@@]1(O)[C@H]2OC(=O)[C@@]1(C)O`, the Potency was inconclusive: 26.9 µM [fluorescent, side channel, partial curve, poor fit]. For `c1ccc(C2CC2)c(OCC2=NCCN2)c1`, the Potency was “inactive”. For `Cc1cc2c(C(C)C)c(O)c(O)c(C=O)c2c(O)c1-c1c(C)cc2c(C(C)C)c(O)c(O)c(C=O)c2c1O`, the Potency was active: 9.53 µM. With `CN1C[C@H](CNC(=O)OCc2ccccc2)C[C@@H]2c3cccc4c3c(cn4C)C[C@H]21` the Potency was inconclusive: 26.9 µM [fluorescent, side channel, single point]. With `CN1CC[C@@]2(C)c3cc(O)ccc3N(C)C12` (stereo partly specified) the Potency was inconclusive: 26.9 µM [falling, partial curve, poor fit]. In the case of `CN(N=O)c1ccc(O)c(O)c1`, the Potency was active: 4.78 µM. With `CNCC(O)c1ccc(O)cc1` (stereo unspecified) the Potency was “inactive”. For `CCC1(c2ccc(N)cc2)CCC(=O)NC1=O` (stereo unspecified), the Potency was inconclusive: 6.01 µM [falling, partial curve, poor fit]. For `CCCCC/C=C\C/C=C\C/C=C\C/C=C\CCCC(=O)NCC(=O)O`, the Potency was inconclusive: 4.78 µM [falling, full curve]. In the case of `Cc1cccc(C)c1NC(=O)CN1CCCC1=O`, the Potency was inconclusive: 0.757 µM [falling, full curve, poor fit]. With `C[C@@H]1O[C@@H](O[C@H]2C[C@@H](O)[C@]3(CO)[C@H]4[C@H](O)C[C@]5(C)[C@@H](C6=CC(=O)OC6)CC[C@]5(O)[C@@H]4CC[C@]3(O)C2)[C@H](O)[C@H](O)[C@H]1O` the Potency was “inactive”. For `CC[C@@H](CO)NC(=O)[C@@H]1C=C2c3cccc4[nH]cc(c34)C[C@H]2N(C)C1`, the Potency was inconclusive: 23.9 µM [fluorescent, side channel, partial curve]. With `NN=C(N)N` the Potency was “inactive”. With `CC(Cc1ccc(OCC(=O)O)cc1)NCC(O)c1cccc(Cl)c1` (stereo unspecified) the Potency was “inactive”.

Target: Phosphoglycerate kinase, glycosomal (Trypanosoma brucei brucei) (UniProt P07378)
Experiment: qHTS Validation Assay to Find Inhibitors of Phosphoglycerate Kinase (AID 504547)
Details: enzymatic PGK inhibition, coupled luminescence read-out
In short: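 PGK activity was coupled to GAPDH (100nM final), which generates the unstable substrate 1,3-bisphosphoglycerate in-well. Reactions ran 60 minutes at room temperature in 100mM TEA pH 7.6, 5mM MgCl2, 0.01% Tween-20, then Kinase-Glo Plus luminescence was read.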
For `CN(N=O)c1cc(O)ccc1O`, the Potency was inconclusive: 37.9 µM [inhibitor, single point]. With `O=c1c(O)c(-c2ccc(O)c(O)c2)oc2cc(O)cc(O)c12` the Potency was active: 7.57 µM. For `Cc1cc2c(C(C)C)c(O)c(O)c(C=O)c2c(O)c1-c1c(C)cc2c(C(C)C)c(O)c(O)c(C=O)c2c1O`, the Potency was inconclusive: 23.9 µM [inhibitor, single point]. For `CCCCC/C=C\C/C=C\C/C=C\C/C=C\CCCC(=O)NCC(=O)O`, the Potency was inconclusive: 23.9 µM [inhibitor, single point]. With `N#C/C(=C/c1ccc(O)c(O)c1)C(N)=S` the Potency was inconclusive: 16.9 µM [inhibitor, partial curve].

Target: phosphoglycerate mutase (Leishmania major) (UniProt Q4Q090)
Experiment: qHTS Validation Assay to Find Inhibitors of Phosphoglycerate Mutase (AID 504548); as to activity change, negative = inhibition: % is scaled to controls: 0 for no effect and ±100 for the full control effect
Details: biochemical enzyme activity; Potency: inhibition qHTS; series mostly up to 57.5 µM
In short: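 Lm PGAM 1.25nM final; 100 mM TEA pH 7.6, 5 mM MgCl2, 0.01% Tween-20; 45 min RT; Kinase-GloPlus, 10 min; end-point luminescence. Enzyme-free wells as negative controls.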
With `N#CC(C#N)=Cc1ccc(O)c(O)c1` the Potency was “inactive”. With `NC(N)=Nc1ccc2[nH]c3c(c2c1)C[C@@]1(O)[C@H]2Cc4ccc(O)c5c4[C@@]1(CCN2CC1CC1)[C@H]3O5` the Potency was “inactive”. For `Cc1cc2c(C(C)C)c(O)c(O)c(C=O)c2c(O)c1-c1c(C)cc2c(C(C)C)c(O)c(O)c(C=O)c2c1O`, the Potency was inconclusive: 0.0151 µM [inhibitor, partial curve, poor fit]. In the case of `O=c1c2ccccc2[se]n1-c1ccccc1`, the Potency was active: 7.57 µM. With `COc1ccc2c(c[n+](C)c3c4cc5c(cc4ccc23)OCO5)c1OC` the Potency was inconclusive: 15.1 µM [inhibitor, partial curve].

Tested on: not listed separately
Experiment: Inducers of the Endoplasmic Reticulum Stress Response (ERSR) in human glioma: Validation (AID 504836)
Details: human glioma cells, ER stress response reporter; series mostly up to 38.3 µM
In short: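 Stably transfected U87-MG glioma cells carrying a GRP78-based luciferase sensor; 16 h compound incubation. Luminescence end-point read 10 min after Bright-Glo addition at room temperature.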
With `C/C=C(/C)C(=O)O[C@H]1C(C)=C2[C@H]([C@@H]1OC(=O)CCCCCCC)[C@@](C)(OC(C)=O)C[C@H](OC(=O)CCC)[C@@]1(O)[C@H]2OC(=O)[C@@]1(C)O` the Potency was active: 0.0165 µM. For `CNCC(O)c1ccc(O)cc1` (stereo unspecified), the Potency was “inactive”. With `O=C(CCCN1CCC2(CC1)C(=O)NCN2c1ccccc1)c1ccc(F)cc1` the Potency was inconclusive: 16.5 µM [activator, partial curve]. With `CC[C@@H](C(N)=O)N1CCCC1=O` the Potency was “inactive”. For `C[N+](C)(C)CC#CCOC(=O)Nc1cccc(Cl)c1`, the Potency was “inactive”.

Target: Ubiquitin carboxyl-terminal hydrolase 1 (Homo sapiens) (UniProt O94782)
UniProt O94782, sequence (O94782 whole entry, looked up): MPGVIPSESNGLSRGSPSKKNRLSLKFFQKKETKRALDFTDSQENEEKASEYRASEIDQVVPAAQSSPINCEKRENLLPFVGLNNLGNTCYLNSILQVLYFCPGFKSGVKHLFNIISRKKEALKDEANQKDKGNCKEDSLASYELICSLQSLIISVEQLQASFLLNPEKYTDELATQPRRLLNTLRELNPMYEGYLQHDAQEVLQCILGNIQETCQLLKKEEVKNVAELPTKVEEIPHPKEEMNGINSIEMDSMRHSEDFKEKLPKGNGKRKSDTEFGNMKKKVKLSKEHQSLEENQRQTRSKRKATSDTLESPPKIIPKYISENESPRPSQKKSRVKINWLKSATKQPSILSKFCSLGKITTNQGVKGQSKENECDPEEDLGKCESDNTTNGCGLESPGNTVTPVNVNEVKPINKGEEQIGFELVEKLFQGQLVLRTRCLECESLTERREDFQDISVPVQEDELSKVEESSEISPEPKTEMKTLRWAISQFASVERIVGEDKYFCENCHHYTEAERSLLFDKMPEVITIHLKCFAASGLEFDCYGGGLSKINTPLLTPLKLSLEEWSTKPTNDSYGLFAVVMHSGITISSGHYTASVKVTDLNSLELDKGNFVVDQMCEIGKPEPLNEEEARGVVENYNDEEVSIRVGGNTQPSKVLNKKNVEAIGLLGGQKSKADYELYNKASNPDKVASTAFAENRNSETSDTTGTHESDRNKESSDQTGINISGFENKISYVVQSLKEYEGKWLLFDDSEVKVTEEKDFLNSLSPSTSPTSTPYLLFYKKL
Experiment: Inhibitors of USP1/UAF1: Pilot qHTS (AID 504865);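 also: rhodamine fluorescence freed from ubiquitin-rhodamine substrate followed over time; nearly all actives have a fitted effect of over 35% in size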; as to activity change, negative = inhibition: top concentration of the series differs between compounds; % is scaled to controls: 0 for no effect and ±100 for the full control effect
Details: purified USP1/UAF1, Ub-rhodamine cleavage fluorescence; series mostly up to 114 µM
In short: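 USP1/UAF1 complex (1nM) preincubated with compound 15 min at room temperature, then Ub-Rho substrate (150nM final) added. Fluorescence read kinetically at 480/540 nm, 6 reads every 60 seconds. Buffer: 50mM HEPES pH 7.8, 0.5mM EDTA, 0.1 mg/ml BSA, 1mM TCEP, 0.01% Tween-20.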
For `Fc1ccc(C(OCCN2CCN(CCCc3ccccc3)CC2)c2ccc(F)cc2)cc1`, the Potency was inconclusive: 44.7 µM [inhibitor, partial curve] and inconclusive: 35.5 µM [inhibitor, partial curve, poor fit] and inconclusive: 31.6 µM [inhibitor, partial curve]. In the case of `N#CC(C#N)=Cc1cc(O)c(O)c(O)c1`, the Potency was inconclusive: 56.2 µM [inhibitor, partial curve, poor fit]. With `CN(N=O)c1cc(O)ccc1O` the Potency was “inactive”. In the case of `O=c1c(O)c(-c2ccc(O)c(O)c2)oc2cc(O)cc(O)c12`, the Potency was inconclusive: 56.2 µM [inhibitor, partial curve, poor fit] and inconclusive: 56.2 µM [inhibitor, partial curve]. With `N#CC(C#N)=Cc1ccc(O)c(O)c1` the Potency was inconclusive: 56.2 µM [inhibitor, partial curve, poor fit] and inactive. With `NC(N)=Nc1ccc2[nH]c3c(c2c1)C[C@@]1(O)[C@H]2Cc4ccc(O)c5c4[C@@]1(CCN2CC1CC1)[C@H]3O5` the Potency was active: 79.4 µM. In the case of `C/C=C(/C)C(=O)O[C@H]1C(C)=C2[C@H]([C@@H]1OC(=O)CCCCCCC)[C@@](C)(OC(C)=O)C[C@H](OC(=O)CCC)[C@@]1(O)[C@H]2OC(=O)[C@@]1(C)O`, the Potency was inconclusive: 20 µM [inhibitor, full curve]. For `c1ccc(C2CC2)c(OCC2=NCCN2)c1`, the Potency was “inactive”. For `Cc1cc2c(C(C)C)c(O)c(O)c(C=O)c2c(O)c1-c1c(C)cc2c(C(C)C)c(O)c(O)c(C=O)c2c1O`, the Potency was active: 22.4 µM and active: 31.6 µM and active: 10 µM. For `CN1C[C@H](CNC(=O)OCc2ccccc2)C[C@@H]2c3cccc4c3c(cn4C)C[C@H]21`, the Potency was inconclusive: 70.8 µM [inhibitor, single point]. In the case of `CN(N=O)c1ccc(O)c(O)c1`, the Potency was active: 22.4 µM. With `CCC1(c2ccc(N)cc2)CCC(=O)NC1=O` (stereo unspecified) the Potency was “inactive”. For `CCC(=O)OC1CCC2C3CCC4=CC(=O)CC[C@@]4(C)C3CC[C@]12C` (stereo partly specified), the Potency was “inactive”. For `CCCCC/C=C\C/C=C\C/C=C\C/C=C\CCCC(=O)NCC(=O)O`, the Potency was active: 18.9 µM and the activity change, negative = inhibition was inactive: -11.7% [at 11.4 µM]. With `NCc1cccnc1` the Potency was “inactive”. With `Cc1ccc(S(=O)(=O)N[C@@H](CCCCN)C(=O)CCl)cc1` the Potency was active: 50.1 µM and active: 39.8 µM. With `CCCCCCCCCC(=O)O[C@H]1CC[C@H]2[C@@H]3CCC4=CC(=O)CC[C@@H]4[C@H]3CC[C@]12C` the Potency was inconclusive: 44.7 µM [inhibitor, partial curve]. With `C=C(C)[C@H]1Cc2c(ccc3c2O[C@@H]2COc4cc(OC)c(OC)cc4[C@@H]2C3=O)O1` the Potency was inconclusive: 56.2 µM [inhibitor, partial curve, poor fit] and inconclusive: 39.8 µM [inhibitor, full curve, poor fit]. In the case of `C#CC1(O)CCC2C3CCC4=CC(=O)CCC4(C)C3CCC21C` (stereo unspecified), the Potency was active: 50.1 µM.
